Results taken from PubChem BioAssay AID504332 (National Center for Advancing Translational Sciences (NCATS), 2011).
About 31,000 (8.9%) of roughly 350,000 compounds were called active. The inconclusive results got no clear call from the source; some entries with a clear call stand among them for comparison. Calls come from the whole dose curve; as a rule, active = well fitted inhibition curve with a large enough effect; inconclusive = small, poorly fitted or top-dose-only effect; inactive = no such curve, though single readings can be large or run the other way. Where the call is inconclusive, the potency comes from a doubtful curve fit.

target: Histone-lysine N-methyltransferase EHMT2 (Homo sapiens) (UniProt Q96KQ7); experiment: qHTS Assay for Inhibitors of Histone Lysine Methyltransferase G9a; conditions: G9a H3K9 monomethylation, AlphaScreen, 2 h; activity, negative = inhibition: at 59 µM (top of the series) unless noted; note: nearly all actives have a fitted effect of over 75% in size
UniProt Q96KQ7, sequence (Q96KQ7 whole entry, looked up): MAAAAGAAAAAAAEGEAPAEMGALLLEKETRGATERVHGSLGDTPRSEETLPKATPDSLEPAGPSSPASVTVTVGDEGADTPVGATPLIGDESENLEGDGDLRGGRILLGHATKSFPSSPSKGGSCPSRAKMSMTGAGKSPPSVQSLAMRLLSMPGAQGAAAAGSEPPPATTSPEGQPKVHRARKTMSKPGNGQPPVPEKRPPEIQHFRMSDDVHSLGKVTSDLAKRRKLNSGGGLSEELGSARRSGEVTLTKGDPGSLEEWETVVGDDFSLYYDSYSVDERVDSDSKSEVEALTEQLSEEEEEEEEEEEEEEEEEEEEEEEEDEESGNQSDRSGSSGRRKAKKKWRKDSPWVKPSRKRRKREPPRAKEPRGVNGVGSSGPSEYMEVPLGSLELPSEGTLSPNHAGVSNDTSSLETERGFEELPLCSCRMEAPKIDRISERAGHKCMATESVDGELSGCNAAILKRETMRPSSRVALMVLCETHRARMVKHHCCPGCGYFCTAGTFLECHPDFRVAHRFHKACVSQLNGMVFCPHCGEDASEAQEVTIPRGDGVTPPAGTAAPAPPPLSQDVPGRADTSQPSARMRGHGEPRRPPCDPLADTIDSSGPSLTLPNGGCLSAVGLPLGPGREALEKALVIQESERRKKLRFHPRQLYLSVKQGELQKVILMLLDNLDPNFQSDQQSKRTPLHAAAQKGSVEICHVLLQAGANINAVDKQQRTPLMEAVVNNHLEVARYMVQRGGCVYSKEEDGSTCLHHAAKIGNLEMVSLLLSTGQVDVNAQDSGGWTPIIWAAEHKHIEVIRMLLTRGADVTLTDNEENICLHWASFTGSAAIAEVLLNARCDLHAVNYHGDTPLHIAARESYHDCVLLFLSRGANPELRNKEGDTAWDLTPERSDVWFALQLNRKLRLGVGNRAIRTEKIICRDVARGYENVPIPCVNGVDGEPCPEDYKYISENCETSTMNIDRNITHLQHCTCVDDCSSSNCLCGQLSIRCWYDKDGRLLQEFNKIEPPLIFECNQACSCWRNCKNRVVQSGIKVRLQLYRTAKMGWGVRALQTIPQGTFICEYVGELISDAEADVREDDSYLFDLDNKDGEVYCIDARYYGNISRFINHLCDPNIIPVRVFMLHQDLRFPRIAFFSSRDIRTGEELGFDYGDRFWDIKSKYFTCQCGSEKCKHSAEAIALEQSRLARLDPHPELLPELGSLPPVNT
In short: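 Readings reflect AlphaScreen signal from monomethyl-H3K9 antibody detection. HMT at 20 nM; substrate b-H3K9 500 nM; cofactor SAM 20 uM; 2 h RT reaction; compounds tested as titrations in qHTS with 15 min preincubation.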
% is set by controls: 0 for no effect and ±100 for the full control effect; potency is the fitted concentration of half-maximal effect; tags give direction and shape of the fitted curve.

Compound | activity, negative = inhibition | Potency
O=C(NCc1cccs1)Nc1ccc2c(c1)OCO2 | inconclusive: -53.3% [inhibitor] | –
CCCC(=O)NC(=S)Nc1cccc(-c2nc3ncccc3o2)c1 | – | active: 22.4 µM
COc1ccc(NC(=O)c2ccc(S(=O)(=O)N3CCCCCC3)cc2)c(OC)c1 | – | inconclusive: 79.4 µM [inhibitor, single point]
CN1CCc2c(c3ccccc3n2C)C1 | inactive: -4.02% [at 12.7 µM] | –
O=C(Nc1ccccn1)c1ccc2nc(-c3ccccc3)c(-c3ccccc3)nc2c1 | – | inconclusive: 44.7 µM [inhibitor, partial curve]
CCn1c(=N)c(C(=O)NCc2cccnc2)cc2c(=O)n3cccc(C)c3nc21 | – | inconclusive: 0.794 µM [inhibitor, single point]
O=C(Nc1ccccc1)c1ccccc1OCC(O)CN1C(=O)c2ccccc2S1(=O)=O (centres undefined) | – | inconclusive: 56.2 µM [inhibitor, partial curve]
CCCN(CCC)CC(=O)N1CC(=O)Nc2ccccc21 | – | inconclusive: 50.1 µM [inhibitor, partial curve, poor fit]
CN(C(=O)c1cccc([N+](=O)[O-])c1)c1ccccc1C(=O)NCc1ccccc1 | – | inconclusive: 28.2 µM [inhibitor, partial curve, poor fit]
CCC1(c2ccccc2)NC(=O)N(CC(=O)Nc2ccccc2C(=O)N2CCCCC2)C1=O (centres undefined) | inactive: 3.88% [at 0.501 µM] | –
Cn1c(Oc2ccc3c(c2)OCO3)nc2c1c(=O)n(Cc1ccccc1)c(=O)n2C | – | inconclusive: 39.8 µM [inhibitor, single point]
CC1CCCN(c2csc3ccc(F)cc3c2=O)C1 (centres undefined) | – | inactive
CCN1CCN(Cc2c(O)ccc3c2O/C(=C\C=C\c2ccccc2)C3=O)CC1 | – | inconclusive: 39.8 µM [inhibitor, single point]
CCOC(=O)c1ccc(-n2c(N)c(C(=O)OC)c3nc4ccccc4nc32)cc1 | – | inactive
COC(=O)CC1C(=O)NCCN1C(=S)NC(=O)CCc1ccccc1 (centres undefined) | – | inconclusive: 70.8 µM [inhibitor, partial curve, poor fit]
CCOC(=O)c1c(C)oc2c1cc(NS(=O)(=O)c1ccc(C(=O)O)cc1)c1ccccc12 | – | active: 35.5 µM
CCC(Cc1ccccc1)NC(=O)c1ccc2nc(N3CCC(C)CC3)sc2c1 (centres undefined) | – | inactive
COc1cc2c(cc1Cl)/C(=C\CCN(C)C)c1ccccc1S2 | – | inconclusive: 39.8 µM [inhibitor, single point]
CC(=O)Nc1c2c(nn1-c1ccccc1C)CS(=O)C2 (centres undefined) | – | inactive
CCCCn1c(SCC(=O)c2ccc(O)c(O)c2)nc2ccsc2c1=O | – | inactive
COc1ccccc1-n1c(=S)[nH]c2c(sc(=S)n2-c2ccccc2)c1=O | – | inactive
O=C(Cn1nc(Cc2cccnc2)c2ccccc2c1=O)N1CCN(c2ccccn2)CC1 | – | inactive
C=CCn1c(C)cc(C2=NNC(=NCc3ccccc3)SC2)c1C | – | inconclusive: 39.8 µM [inhibitor, single point]
CN1CCN(C2CC(=O)N(c3ccc4c(c3)OCCO4)C2=O)CC1 (centres undefined) | – | active: 44.7 µM
Cc1ccc(N2C(S)=C(C#N)C(=O)NC2c2cccs2)cc1 (centres undefined) | – | inconclusive: 20 µM [inhibitor, partial curve, poor fit]

Compound | activity, negative = inhibition | Potency
COc1cc(/C=C2/SC(=S)N(CC(=O)O)C2=O)ccc1OC(=O)c1cccs1 | – | active: 50.1 µM
Cc1ccc(CNC(=O)CCC2CCCN(C(=O)CCC(F)(F)F)C2)o1 (centres undefined) | – | active: 50.1 µM
CC(C)(C)C1CCC(=NNC(=S)NCc2ccccc2)CC1 (centres undefined) | – | active: 8.91 µM
CC1(C)O[C@H]2[C@@H](O1)[C@@H](C(=O)Nc1ccccc1O)O[C@@H]1OC(C)(C)O[C@@H]12 | – | active: 1 µM
Nc1ccc(S(=O)(=O)c2ccc(N)c(N)c2)cc1 | – | inconclusive: 70.8 µM [inhibitor, single point]
CCOc1cc(C2C(C(=O)OC)=C(C)NC3=C2C(=O)c2ccccc23)ccc1O (centres undefined) | – | inconclusive: 28.2 µM [inhibitor, single point]
c1ccc(N2CCN(Cc3nnnn3C3CCCCC3)CC2)cc1 | – | inactive
CCOc1ccc(CNC(=O)C2CCCN(c3nc4c(C)cc(C)cc4s3)C2)cc1 (centres undefined) | – | inactive
COc1ccc(-n2nc3ccc(NC(=O)c4cc5ccccc5o4)cc3n2)cc1Cl | – | inactive
COc1ccccc1-c1nc(S(=O)(=O)c2ccc(Cl)cc2)c(N2CCCCCC2)o1 | – | inconclusive: 0.398 µM [inhibitor, full curve, poor fit]
COc1ccc(-c2nc3n(n2)C(=O)CC(c2ccco2)S3)cc1 (centres undefined) | – | active: 2.24 µM
CCC(CC)C(=O)Nc1cccc(-c2nc3cccnc3s2)c1C | – | inactive
CCS(=O)(=O)C1=NSC2=NC(=O)/C(=C\c3ccc(OS(=O)(=O)c4ccccc4)c(OC)c3)C(=N)N21 | – | active: 39.8 µM
CCN1CCN(c2cc(C)c3cc(NC(=S)NCc4cccs4)ccc3n2)CC1 | – | active: 44.7 µM
Cc1ccccc1-c1nn(-c2ccc(F)cc2F)cc1CNCCCO | – | inconclusive: 3.16 µM [inhibitor, single point]
CCC(=O)NC(c1ccccc1OC)c1ccc2cccnc2c1O (centres undefined) | – | inactive
Oc1cccc2ccc(N3CCOCC3)nc12 | – | inconclusive: 79.4 µM [inhibitor, single point]
COc1ccccc1C(=O)Nc1ccc2c(c1)nc1n2CCN(Cc2ccccc2)C1 | – | active: 15.8 µM
O=C(NNC(=O)c1ccc([N+](=O)[O-])o1)c1ccccc1 | – | inconclusive: 22.4 µM [inhibitor, partial curve, poor fit]
Cc1cccc(N/C(N)=N/c2nc(C(F)(F)F)cc(=O)[nH]2)c1C | – | inactive
CCC(=O)Nc1ccc2c(c1)nc(CCN1CCC(C)CC1)n2C | – | inactive
CCOC(=O)c1cc(NC(=O)SCC(=O)O)c(C)nc1C | inconclusive: -78.6% [inhibitor] | –
CC(=O)N1[C@H](Cc2ccccc2)C=C[C@]1(C)C(=O)NCc1ccc(C)o1 | – | active: 6.31 µM
Cc1nn(-c2ccccc2)c(Cl)c1/C=C1\SC(=S)NC1=O | – | inconclusive: 3.98 µM [inhibitor, partial curve, poor fit]
